In the supplement of paper PMC4166925:
± gives the standard deviation of the averaged measurements. Whole data set: some 33,000 sequences, median “E-score (dimensionless, -0.5 to 0.5)” near -0.046, cut for the highest 2% near 0.36. Some of the results follow.

Test system: T1, SpTbr T-box DNA-binding domain (GST fusion)
T1 sequence: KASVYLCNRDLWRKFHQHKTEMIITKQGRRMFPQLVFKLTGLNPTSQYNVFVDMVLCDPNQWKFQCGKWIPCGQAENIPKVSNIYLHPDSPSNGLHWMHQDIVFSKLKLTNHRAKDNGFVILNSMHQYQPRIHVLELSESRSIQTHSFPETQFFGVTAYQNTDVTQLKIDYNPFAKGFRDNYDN
Experiment: PBM E-score of 8-mer (E-score (dimensionless, -0.5 to 0.5)); Tbr is Tbrain of the sea star Patiria miniata (Pm) or the sea urchin Strongylocentrotus purpuratus (Sp); higher = stronger binding preference; most listed sequences are background and not binding sites
Details: the construct has about 5 more residues each side
Method in brief: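 Primer extension turned Universal Agilent oligonucleotide arrays double-stranded. They were incubated with 200 nM protein in PBS (pH 7.5); the protein was a GST-fused Tbr T-box DNA-binding domain expressed in BL21 E. coli at 20 °C and purified on glutathione. Every ungapped 8-mer was scored from the scanned, quantified probe intensities, and the Universal PBM Analysis Suite gave each an enrichment E-score averaged over duplicate arrays.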

| Sequence | PBM E-score of 8-mer |
| --- | --- |
| AGGTCTTG | -0.136 ± 0.073 |
| AAGGGGGA | -0.225 ± 0.019 |
| ATTGTATA | -0.223 ± 0.0029 |
| TGGCAACA | 0.273 ± 0.022 |
| CGGAGGAA | -0.347 ± 0.005 |
| AATCCAGT | -0.0778 ± 0.0019 |
| CAACAGGC | 0.0667 ± 0.036 |
| CCTTAGGA | -0.116 ± 0.027 |
| TATTTCAA | -0.146 ± 0.037 |
| AAGGCGGT | -0.0411 ± 0.04 |
| AGGCTAGG | -0.251 ± 0.018 |
| TTGCACAA | -0.0453 ± 0.013 |
| CGATCATC | -0.0783 ± 0.0081 |
| AGCATGTG | 0.14 ± 0.11 |
| CATGATGA | 0.0198 ± 0.02 |
| TACGCGAA | 0.159 ± 0.05 |
| CCGCTAAA | 0.173 ± 0.051 |
| CCCAGCCC | -0.135 ± 0.03 |
| AAGTATCG | 0.159 ± 0.036 |
| GGATCCAA | -0.213 ± 0.043 |
| GGAACGTA | -0.249 ± 0.041 |
| GCATTGCC | -0.0431 ± 0.042 |
| CGCGGAAG | 0.123 ± 0.016 |
| AATAGTTC | -0.0653 ± 0.097 |
| ACCGGTGC | -0.0976 ± 0.032 |

| Sequence | PBM E-score of 8-mer |
| --- | --- |
| AATAACTC | -0.049 ± 0.03 |
| GCATACAA | -0.184 ± 0.035 |
| AACGGGAA | -0.0474 ± 0.074 |
| ACGTGTAG | 0.133 ± 0.068 |
| ACCACGTG | 0.207 ± 0.034 |
| GCATCCCC | -0.113 ± 0.032 |
| GGACTCTA | -0.305 ± 0.019 |
| ACGGCGAG | -0.0397 ± 0.066 |
| ATATCGGG | -0.131 ± 0.011 |
| AATGAAGT | -0.051 ± 0.077 |
| TCAAATGA | -0.203 ± 0.044 |
| GAATAAAA | 0.125 ± 0.014 |
| CGTCGGTA | -0.0497 ± 0.012 |
| AGTCACCC | 0.017 ± 0.11 |
| TCCTAAGA | -0.32 ± 0.018 |
| GTTGTAAA | 0.123 ± 0.071 |
| ATATGATG | 0.0387 ± 0.089 |
| AGGGCAGC | 0.0428 ± 0.043 |
| AAACATGG | -0.191 ± 0.014 |
| ATGCACAA | 0.004 ± 0.018 |
| ACCAGCGC | 0.0491 ± 0.099 |
| GCTTGATA | -0.109 ± 0.002 |
| TGTGATAA | 0.377 ± 0.017 |
| AAGTGCAA | 0.323 ± 0.016 |
| TGATTCAA | -0.108 ± 0.02 |

| Sequence | PBM E-score of 8-mer |
| --- | --- |
| CACATGGA | 0.1438 ± 0.00043 |
| ATGAATAC | -0.1758 ± 0.0014 |
| TCGCCCAA | -0.0345 ± 0.031 |
| CAACCGGG | -0.103 ± 0.0069 |
| ACAATCGA | -0.0224 ± 0.028 |
| ACGCGCGG | 0.229 ± 0.028 |
| CTCATAGA | -0.156 ± 0.053 |
| TATACTGA | -0.214 ± 0.063 |
| ACAAAGTG | 0.171 ± 0.024 |
| ATGAGGAC | -0.293 ± 0.013 |
| GCCATCGC | 0.0851 ± 0.058 |
| AGATAATG | -0.132 ± 0.051 |
| CGTTTGCC | -0.0967 ± 0.12 |
| ATTATTAA | 0.0186 ± 0.092 |
| CACGCCGG | 0.275 ± 0.04 |
| TGAAAAAA | -0.0357 ± 0.0053 |
| GCATCACC | 0.301 ± 0.011 |
| TTCCTAAA | -0.354 ± 0.036 |
| GGTGACAA | 0.459 ± 0.011 |
| AGAAGTCC | 0.026 ± 0.044 |
| CTGAACGC | -0.0762 ± 0.037 |
| CAATACGC | 0.04 ± 0.079 |
| CCGGCCGG | -0.268 ± 0.017 |
| AGGTGAGG | 0.4113 ± 0.0021 |
| CCCGGCAA | 0.0221 ± 0.067 |

| Sequence | PBM E-score of 8-mer |
| --- | --- |
| GCCCTGCC | 0.0738 ± 0.032 |
| GCTTGCCA | 0.152 ± 0.061 |
| AGCGCGCT | -0.0253 ± 0.037 |
| TCGGCGAA | 0.00517 ± 0.1 |
| AGGTATTA | 0.00443 ± 0.062 |
| ACTACTAG | -0.188 ± 0.057 |
| CATAATCG | -0.137 ± 0.021 |
| ATTAAGTC | -0.26 ± 0.038 |
| CTACCGCA | 0.0485 ± 0.0024 |
| AAGAGGTG | 0.407 ± 0.0088 |
| ACTCTAAA | -0.107 ± 0.062 |
| CTGAAGTC | -0.284 ± 0.052 |
| CAAGAACA | -0.0231 ± 0.067 |
| ATCTCCGC | 0.0734 ± 0.0098 |
| GGTATGTA | -0.134 ± 0.079 |
| CCACTTGC | 0.192 ± 0.049 |
| ACCCATCT | -0.0615 ± 0.0012 |
| ACGAGGGA | -0.0881 ± 0.03 |
| CGCAAAGC | -0.0146 ± 0.083 |
| CTCCGAAA | -0.0368 ± 0.022 |
| GAGATGGA | -0.0189 ± 0.069 |
| AAATGAAA | -0.0939 ± 0.12 |
| AGGCTTAA | -0.131 ± 0.014 |
| CGTCGGAA | -0.0803 ± 0.018 |
| CGACTCGA | 0.138 ± 0.032 |

| Sequence | PBM E-score of 8-mer |
| --- | --- |
| GACTGTGA | 0.279 ± 0.0029 |
| AGCCCATA | -0.157 ± 0.0018 |
| CTAGATGC | -0.125 ± 0.038 |
| AGGATTCC | -0.273 ± 0.054 |
| GGCCGCCA | 0.0406 ± 0.0027 |
| CCATCTCC | -0.0172 ± 0.096 |
| AGCTCTTA | -0.223 ± 0.03 |
| AGGAACCT | -0.154 ± 0.021 |
| ATGTTATA | -0.0933 ± 0.013 |
| ATAGGCAA | -0.214 ± 0.01 |
| ACTCGCTC | -0.0581 ± 0.083 |
| GATTAGGA | -0.286 ± 0.01 |
| CTCAGGAA | -0.12 ± 0.02 |
| AGTTTAAG | -0.0915 ± 0.091 |
| CTGAGACA | 0.0861 ± 0.095 |
| TTAAGCAA | -0.151 ± 0.02 |
| CCGCGTTA | 0.101 ± 0.023 |
| ATCCAGTG | -0.251 ± 0.028 |
| GCGCTCGA | -0.0292 ± 0.0073 |
| TAATTCTA | -0.153 ± 0.018 |
| CTCCTGGA | -0.0475 ± 0.01 |
| GCCGGACA | -0.253 ± 0.031 |
| ACGTCGGG | 0.0128 ± 0.04 |
| AAAAGGTT | -0.0952 ± 0.076 |
| ATTCATCC | -0.234 ± 0.053 |

| Sequence | PBM E-score of 8-mer |
| --- | --- |
| AGATAGTC | -0.169 ± 0.04 |
| CCCTGAGG | -0.0752 ± 0.00081 |
| CCATAATA | -0.0882 ± 0.037 |
| CAGTGATC | 0.0236 ± 0.038 |
| TCTAGAGA | -0.0315 ± 0.044 |
| CGTATTAG | -0.0646 ± 0.04 |
| GAATTACA | -0.033 ± 0.044 |
| GCGGGAAA | 0.135 ± 0.0056 |
| ATGTCGGA | -0.011 ± 0.048 |
| GGCTGAAA | -0.173 ± 0.043 |
| CTCTCGCC | 0.251 ± 0.0045 |
| AGATCGAA | 0.0086 ± 0.046 |
| CGTGACCC | 0.167 ± 0.075 |
| AGTGGCCG | 0.0415 ± 0.0067 |
| CCCATCGC | -0.0223 ± 0.091 |
| GTTTCTTA | 0.126 ± 0.008 |
| ACGGTTAT | 0.0286 ± 0.041 |
| CAATGAGA | -0.141 ± 0.11 |
| ACCGTCCT | -0.134 ± 0.022 |
| AAATTGGA | -0.126 ± 0.061 |
| ACCAGGTA | -0.0553 ± 0.093 |
| AACGATTG | -0.00432 ± 0.013 |
| AGGTAGTG | 0.123 ± 0.044 |
| CCTTGGAG | -0.1541 ± 0.00054 |
| CGGAGGGA | -0.167 ± 0.056 |

| Sequence | PBM E-score of 8-mer |
| --- | --- |
| GAGAAACA | 0.102 ± 0.05 |
| GAGTGTGA | 0.478 ± 0.0052 |
| CGGCCAAC | -0.105 ± 0.036 |
| ATCCCTAA | -0.286 ± 0.011 |
| GCAGCGGC | -0.1 ± 0.056 |
| AAAGCCGC | 0.14 ± 0.033 |
| CACACGTA | 0.356 ± 0.0042 |
| CCGTTGCG | 0.0553 ± 0.073 |
| AACTCGGT | -0.0789 ± 0.061 |
| AATGAAAT | -0.144 ± 0.068 |
| TCTCTGAA | -0.155 ± 0.031 |
| GCTCTACC | 0.0202 ± 0.014 |
| AAAAAGAA | -0.159 ± 0.025 |
| AGTATCCC | -0.0802 ± 0.01 |
| AACATTGT | 0.114 ± 0.037 |
| ACATGATG | 0.172 ± 0.043 |
| AATTACGG | -0.121 ± 0.08 |
| ATAGAATC | -0.0935 ± 0.013 |
| GTTTTTAA | -0.153 ± 0.063 |
| AACCCATA | 0.0674 ± 0.036 |
| ACCCCTCG | 0.11 ± 0.08 |
| GCTCCACC | 0.0333 ± 0.025 |
